Results published in patent US9873709B2 (priority 2013, dated 2018).

biological target: isolated recombinant JAK1 kinase domain (Homo sapiens (Human), UniProt P23458); settings: read-out: JAK1 Ki; isolated recombinant JAK1 kinase domain, 25 μM ATP
Sequence (P23458 875-1153): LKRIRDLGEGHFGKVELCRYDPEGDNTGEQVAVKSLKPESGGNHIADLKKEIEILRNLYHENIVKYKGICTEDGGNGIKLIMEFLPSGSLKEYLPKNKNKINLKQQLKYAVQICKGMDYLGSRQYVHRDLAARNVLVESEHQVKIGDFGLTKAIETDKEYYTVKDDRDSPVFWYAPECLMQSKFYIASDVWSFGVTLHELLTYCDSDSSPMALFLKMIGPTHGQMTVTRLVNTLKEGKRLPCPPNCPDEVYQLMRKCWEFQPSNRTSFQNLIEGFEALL

SMILES	Ki
O=C(CCC(F)(F)F)N1CC=C(c2cccn3nc(Nc4ccc(C(=O)N5CCN(Cc6cccnc6)CC5)cc4)nc23)CC1 [Example 2-394, 4,4,4-trifluoro-1-[4-[2-[4-[4-(3-pyridylmethyl)piperazine-1-carbonyl]anilino]-[1,2,4]triazolo[1,5-a]pyridin-8-yl]-3,6-dihydro-2H-pyridin-1-yl]butan-1-one]	0.63 nM
O=C(CCC(F)(F)F)N1CC=C(c2cccn3nc(Nc4ccc(C(=O)N5CCN(c6cccnc6)CC5)cc4)nc23)CC1 [Example 2-395, 4,4,4-trifluoro-1-[4-[2-[4-[4-(3-pyridyl)piperazine-1-carbonyl]anilino]-[1,2,4]triazolo[1,5-a]pyridin-8-yl]-3,6-dihydro-2H-pyridin-1-yl]butan-1-one]	0.65 nM
CC(CN(C)C)NC(=O)c1ccc(Nc2nc3c(C4=CCN(C(=O)CCC(F)(F)F)CC4)cccn3n2)cc1 (centres unmarked) [Example 2-399, N-[2-(dimethylamino)-1-methyl-ethyl]-4-[[8-[1-(4,4,4-trifluorobutanoyl)-3,6-dihydro-2H-pyridin-4-yl]-[1,2,4]triazolo[1,5-a]pyridin-2-yl]amino]benzamide]	1.28 nM
CCCN1CCC(N(C(=O)c2ccc(Nc3nc4c(C5=CCN(C(=O)CCC(F)(F)F)CC5)cccn4n3)cc2)C2CC2)CC1 [Example 2-400, N-cyclopropyl-N-(1-propyl-4-piperidyl)-4-[[8-[1-(4,4,4-trifluorobutanoyl)-3,6-dihydro-2H-pyridin-4-yl]-[1,2,4]triazolo[1,5-a]pyridin-2-yl]amino]benzamide]	1.35 nM
CN(Cc1cccnc1)C(=O)c1ccc(Nc2nc3c(C4=CCN(C(=O)CCC(F)(F)F)CC4)cccn3n2)cc1 [Example 2-402, N-methyl-N-(3-pyridylmethyl)-4-[[8-[1-(4,4,4-trifluorobutanoyl)-3,6-dihydro-2H-pyridin-4-yl]-[1,2,4]triazolo[1,5-a]pyridin-2-yl]amino]benzamide]	0.6 nM
O=C(CCC(F)(F)F)N1CC=C(c2cccn3nc(Nc4ccc(C(=O)N5CCC(Cc6ccccn6)CC5)cc4)nc23)CC1 [Example 2-404, 4,4,4-trifluoro-1-[4-[2-[4-[4-(2-pyridylmethyl)piperidine-1-carbonyl]anilino]-[1,2,4]triazolo[1,5-a]pyridin-8-yl]-3,6-dihydro-2H-pyridin-1-yl]butan-1-one]	0.6 nM
CN(Cc1ccc(N(C)C)cc1)C(=O)c1ccc(Nc2nc3c(C4=CCN(C(=O)CCC(F)(F)F)CC4)cccn3n2)cc1 [Example 2-406, N-[[4-(dimethylamino)phenyl]-methyl]-N-methyl-4-[[8-[1-(4,4,4-trifluorobutanoyl)-3,6-dihydro-2H-pyridin-4-yl]-[1,2,4]triazolo[1,5-a]pyridin-2-yl]amino]benzamide]	1.12 nM
CC(C)CCC(=O)N1CC=C(c2cccn3nc(Nc4ccc(C(=O)N(C)C5CCN(C)CC5)cc4)nc23)CC1 [Example 2-412, N-methyl-4-[[8-[1-(4-methylpentanoyl)-3,6-dihydro-2H-pyridin-4-yl]-[1,2,4]triazolo[1,5-a]pyridin-2-yl]amino]-N-(1-methyl-4-piperidyl)benzamide]	4.35 nM
CN1CCC(N(C)C(=O)c2ccc(Nc3nc4c(C5=CCN(C(=O)N6CCOCC6)CC5)cccn4n3)cc2)CC1 [Example 2-413, N-methyl-N-(1-methyl-4-piperidyl)-4-[[8-[1-(morpholine-4-carbonyl)-3,6-dihydro-2H-pyridin-4-yl]-[1,2,4]triazolo[1,5-a]pyridin-2-yl]amino]benzamide]	19.6 nM
CCOC(=O)N1CC=C(c2cccn3nc(Nc4ccc(C(=O)N5CCC(N(C)C)C5)cc4)nc23)CC1 (centres unmarked) [Example 2-414, ethyl 4-[2-[4-[3-(dimethylamino)pyrrolidine-1-carbonyl]anilino]-[1,2,4]triazolo[1,5-a]pyridin-8-yl]-3,6-dihydro-2H-pyridine-1-carboxylate]	3.2 nM
CCOC(=O)N1CC=C(c2cccn3nc(Nc4ccc(C(=O)NCCC5CCCNC5)cc4)nc23)CC1 (centres unmarked) [Example 2-416, ethyl 4-[2-[4-[2-(3-piperidyl)ethylcarbamoyl]anilino]-[1,2,4]triazolo[1,5-a]pyridin-8-yl]-3,6-dihydro-2H-pyridine-1-carboxylate]	1.64 nM

Now from value to molecule:

Ki	SMILES
2.02 nM	O=C(CCC(F)(F)F)N1CC=C(c2cccn3nc(Nc4ccc(C(=O)N5CCCC(O)(CN6CCCC6)CC5)cc4)nc23)CC1 (centres unmarked) [Example 2-390, 4,4,4-trifluoro-1-[4-[2-[4-[4-hydroxy-4-(pyrrolidin-1-ylmethyl)azepane-1-carbonyl]anilino]-[1,2,4]triazolo[1,5-a]pyridin-8-yl]-3,6-dihydro-2H-pyridin-1-yl]butan-1-one]
0.71 nM	CN1CCC2(CC1)CN(C(=O)c1ccc(Nc3nc4c(C5=CCN(C(=O)CCC(F)(F)F)CC5)cccn4n3)cc1)C2 [Example 2-391, 4,4,4-trifluoro-1-[4-[2-[4-(7-methyl-2,7-diazaspiro[3.5]nonane-2-carbonyl)anilino]-[1,2,4]triazolo[1,5-a]pyridin-8-yl]-3,6-dihydro-2H-pyridin-1-yl]butan-1-one]
1.18 nM	O=C(CCC(F)(F)F)N1CC=C(c2cccn3nc(Nc4ccc(C(=O)N5CC6(CNC6)C5)cc4)nc23)CC1 [Example 2-392, 1-[4-[2-[4-(2,6-diazaspiro[3.3]heptane-2-carbonyl)anilino]-[1,2,4]triazolo[1,5-a]pyridin-8-yl]-3,6-dihydro-2H-pyridin-1-yl]-4,4,4-trifluoro-butan-1-one]
0.96 nM	CN1CCN(C2CCN(C(=O)c3ccc(Nc4nc5c(C6=CCN(C(=O)CCC(F)(F)F)CC6)cccn5n4)cc3)CC2)CC1 [Example 2-393, 4,4,4-trifluoro-1-[4-[2-[4-[4-(4-methylpiperazin-1-yl)piperidine-1-carbonyl]anilino]-[1,2,4]triazolo[1,5-a]pyridin-8-yl]-3,6-dihydro-2H-pyridin-1-yl]butan-1-one]
0.97 nM	O=C(CCC(F)(F)F)N1CC=C(c2cccn3nc(Nc4ccc(C(=O)N5CCCC5Cc5ccccn5)cc4)nc23)CC1 (centres unmarked) [Example 2-396, 4,4,4-trifluoro-1-[4-[2-[4-[2-(2-pyridylmethyl)pyrrolidine-1-carbonyl]anilino]-[1,2,4]triazolo[1,5-a]pyridin-8-yl]-3,6-dihydro-2H-pyridin-1-yl]butan-1-one]
1.18 nM	O=C(CCC(F)(F)F)N1CC=C(c2cccn3nc(Nc4ccc(C(=O)N5CCN(c6ccccn6)CC5)cc4)nc23)CC1 [Example 2-397, 4,4,4-trifluoro-1-[4-[2-[4-[4-(2-pyridyl)piperazine-1-carbonyl]anilino]-[1,2,4]triazolo[1,5-a]pyridin-8-yl]-3,6-dihydro-2H-pyridin-1-yl]butan-1-one]
2.39 nM	O=C(CCC(F)(F)F)N1CC=C(c2cccn3nc(Nc4ccc(C(=O)N5CCN(CC6CC6)CC5)cc4)nc23)CC1 [Example 2-398, 1-[4-[2-[4-[4-(cyclopropylmethyl)piperazine-1-carbonyl]anilino]-[1,2,4]triazolo[1,5-a]pyridin-8-yl]-3,6-dihydro-2H-pyridin-1-yl]-4,4,4-trifluoro-butan-1-one]
0.58 nM	Cc1cccc(C(C)NC(=O)c2ccc(Nc3nc4c(C5=CCN(C(=O)CCC(F)(F)F)CC5)cccn4n3)cc2)n1 (centres unmarked) [Example 2-401, N-[1-(6-methyl-2-pyridyl)ethyl]-4-[[8-[1-(4,4,4-trifluorobutanoyl)-3,6-dihydro-2H-pyridin-4-yl]-[1,2,4]triazolo[1,5-a]pyridin-2-yl]amino]benzamide]
0.85 nM	O=C(CCC(F)(F)F)N1CC=C(c2cccn3nc(Nc4ccc(C(=O)N5CCCC(N6CCCCCC6)C5)cc4)nc23)CC1 (centres unmarked) [Example 2-403, 1-[4-[2-[4-[3-(azepan-1-yl)piperidine-1-carbonyl]anilino]-[1,2,4]triazolo[1,5-a]pyridin-8-yl]-3,6-dihydro-2H-pyridin-1-yl]-4,4,4-trifluoro-butan-1-one]
0.63 nM	CN(Cc1ccncc1)C(=O)c1ccc(Nc2nc3c(C4=CCN(C(=O)CCC(F)(F)F)CC4)cccn3n2)cc1 [Example 2-407, N-methyl-N-(4-pyridylmethyl)-4-[[8-[1-(4,4,4-trifluorobutanoyl)-3,6-dihydro-2H-pyridin-4-yl]-[1,2,4]triazolo[1,5-a]pyridin-2-yl]amino]benzamide]
4 nM	CN1CCC(N(C)C(=O)c2ccc(Nc3nc4c(C5=CCN(C(=O)C6CC6)CC5)cccn4n3)cc2)CC1 [Example 2-409, 4-[[8-[1-(cyclopropanecarbonyl)-3,6-dihydro-2H-pyridin-4-yl]-[1,2,4]triazolo[1,5-a]pyridin-2-yl]amino]-N-methyl-N-(1-methyl-4-piperidyl)benzamide]
6.67 nM	COCCC(=O)N1CC=C(c2cccn3nc(Nc4ccc(C(=O)N(C)C5CCN(C)CC5)cc4)nc23)CC1 [Example 2-411, 4-[[8-[1-(3-methoxypropanoyl)-3,6-dihydro-2H-pyridin-4-yl]-[1,2,4]triazolo[1,5-a]pyridin-2-yl]amino]-N-methyl-N-(1-methyl-4-piperidyl)benzamide]
1.71 nM	CCOC(=O)N1CC=C(c2cccn3nc(Nc4ccc(C(=O)NCC5CCCCN5C)cc4)nc23)CC1 (centres unmarked) [Example 2-415, ethyl 4-[2-[4-[(1-methyl-2-piperidyl)methylcarbamoyl]anilino]-[1,2,4]triazolo[1,5-a]pyridin-8-yl]-3,6-dihydro-2H-pyridine-1-carboxylate]
3.29 nM	CCOC(=O)N1CC=C(c2cccn3nc(Nc4ccc(C(=O)N5CCN6CCCC6C5)cc4)nc23)CC1 (centres unmarked) [Example 2-418, ethyl 4-[2-[4-(3,4,6,7,8,8a-hexahydro-1H-pyrrolo[1,2-a]pyrazine-2-carbonyl)anilino]-[1,2,4]triazolo[1,5-a]pyridin-8-yl]-3,6-dihydro-2H-pyridine-1-carboxylate]
5.1 nM	CCOC(=O)N1CC=C(c2cccn3nc(Nc4ccc(C(=O)N(C)Cc5ccccn5)cc4)nc23)CC1 [Example 2-419, ethyl 4-[2-[4-[methyl(2-pyridylmethyl)carbamoyl]anilino]-[1,2,4]triazolo[1,5-a]pyridin-8-yl]-3,6-dihydro-2H-pyridine-1-carboxylate]
